Results taken from PMC4336329 (PLoS ONE, 2015).
Hit rate of the full screen: of about 310,000 compounds, about 2,200 (0.71%) showed an effect of 50% or more. Effects have a minus sign here. This is one part of the list.

These compounds were tested against human ether-à-go-go-related gene (hERG) potassium channel (human, UniProt Q12809) (assay: primary screen, population patch clamp on CHO cells stably expressing hERG).
Sequence of human ether-à-go-go-related gene (hERG) potassium channel (Q12809 whole entry, looked up): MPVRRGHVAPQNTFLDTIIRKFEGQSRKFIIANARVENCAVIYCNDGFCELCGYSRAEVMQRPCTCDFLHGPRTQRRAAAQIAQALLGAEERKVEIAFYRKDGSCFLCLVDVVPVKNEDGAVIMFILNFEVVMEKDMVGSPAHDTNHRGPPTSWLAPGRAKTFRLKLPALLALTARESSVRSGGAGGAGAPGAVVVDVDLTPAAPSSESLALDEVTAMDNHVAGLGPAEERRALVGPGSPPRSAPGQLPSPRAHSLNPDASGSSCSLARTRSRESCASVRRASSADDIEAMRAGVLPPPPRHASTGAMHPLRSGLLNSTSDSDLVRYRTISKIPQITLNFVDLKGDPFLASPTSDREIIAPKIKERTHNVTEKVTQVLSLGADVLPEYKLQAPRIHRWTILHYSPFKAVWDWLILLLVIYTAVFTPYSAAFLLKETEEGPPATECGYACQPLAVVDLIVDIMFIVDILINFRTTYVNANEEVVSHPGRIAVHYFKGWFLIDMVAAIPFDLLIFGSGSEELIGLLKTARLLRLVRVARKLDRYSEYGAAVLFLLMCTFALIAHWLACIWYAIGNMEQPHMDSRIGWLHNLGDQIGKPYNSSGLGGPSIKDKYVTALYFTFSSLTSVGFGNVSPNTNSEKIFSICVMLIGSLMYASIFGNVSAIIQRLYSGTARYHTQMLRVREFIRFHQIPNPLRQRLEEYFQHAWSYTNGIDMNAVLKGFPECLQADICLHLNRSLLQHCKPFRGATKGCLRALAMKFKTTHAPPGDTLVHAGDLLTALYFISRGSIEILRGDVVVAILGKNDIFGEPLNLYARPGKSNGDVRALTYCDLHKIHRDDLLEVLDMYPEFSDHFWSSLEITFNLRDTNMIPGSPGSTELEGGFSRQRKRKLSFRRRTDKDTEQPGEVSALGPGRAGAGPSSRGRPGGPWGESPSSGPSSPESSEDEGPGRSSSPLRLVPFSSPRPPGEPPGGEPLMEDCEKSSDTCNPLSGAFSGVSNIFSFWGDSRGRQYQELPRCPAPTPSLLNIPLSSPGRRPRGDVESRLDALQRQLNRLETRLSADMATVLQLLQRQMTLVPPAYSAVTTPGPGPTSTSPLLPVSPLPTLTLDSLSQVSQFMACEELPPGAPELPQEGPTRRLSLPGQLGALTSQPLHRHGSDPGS

SMILES	hERG current change (%, negative = inhibition) at 1uM [%]
CCSc1nnc(NC(=O)c2cnccn2)s1	18.2
Cc1ccc[n+](CC2OCc3ccccc3CO2)c1.[Br-]	13.5
COc1ccc(N2CCN(C(=O)c3ccc(Br)cc3)CC2)c([N+](=O)[O-])c1	-30.1
O=C1c2ccccc2C(O)(Cc2ccccc2)N1c1ccc2c(c1)OCO2 (stereo not drawn)	13.8
CC(C)(C)c1cc(CN2CCN(CCO)CC2)cc(C(C)(C)C)c1O	-1.88
CCOc1ccc2oc(C(=O)N(CCOC)c3c(N)n(CC(C)C)c(=O)[nH]c3=O)c(C)c2c1	4.06
Cc1ccc(S(=O)(=O)Nc2ccccc2N(C)S(=O)(=O)c2ccc(C)cc2)cc1	14
COc1ccc(CC(=O)OCc2cc3cccc(C)c3[nH]c2=O)cc1	2.65
CC(C)c1ccc(OCC(=O)Nc2cccc(C(=O)Nc3ccccc3C(=O)O)c2)cc1	10.1
COc1ccc(C(C(=O)NC2CCCCC2)N(C(=O)Cc2c[nH]c3ccccc23)c2ccccc2)cc1OC (stereo not drawn)	10.2
CC(=O)Nc1ccc(S(=O)(=O)Nc2cccc3cccnc23)cc1	9.51
O=C(CSc1ccc(Cl)cc1)Nc1ccc(-c2nc3ccccc3[nH]2)cc1	10.3
Cc1nc2c(=O)n(C)c(=O)n(C)c2nc1Cl	9.86
COc1ccc(OC)c(N2C(=O)NC(=O)C3(Cc4cc(C)ccc4N(C)C3)C2=O)c1 (stereo not drawn)	-0.505
C=CCNc1nc(C(=O)OCC(=O)c2ccc(OC)cc2OC)cs1	-5.45
O=c1[nH]cnc2scc(-c3ccccc3)c12	8.36
CCc1ccc(C(=O)NNc2ccc(C)c(Cl)c2)cc1	5.64
Cc1ccc(C(=O)NCCCNC(=O)Cc2ccc(Cl)cc2)cn1	-8.64
CC/C(=N\NC(=O)CNC(=O)/C=C/c1ccco1)c1ccccc1	4.45
COc1ccc(-n2c(SCC(=O)Nc3cc(C)on3)nc3ccc(O)cc3c2=O)cc1OC	22.3
Cc1ccc(C)c(OCc2cc(C(=O)N(C)Cc3ccccn3)no2)c1	-1.12
CCC(c1nnnn1C1CCCCC1)N1CCN(C2CCCC2)CC1.Cl (stereo not drawn)	11.6
Cc1ccccc1CNC(=O)C(=O)NCC1OCCCN1S(=O)(=O)c1cccs1 (stereo not drawn)	13.9
COc1ccc(/C=C/c2nc(C)c(-c3ccccc3)c(=O)[nH]2)cc1OC	11.9
Cc1cnc([N+](=O)[O-])n1CCOC(=O)NC(=O)c1c(F)cccc1F	5.12
CC(C)NS(=O)(=O)c1ccc(CCC(=O)N2CCOCC2)cc1	-0.27
CN1CCN(Cc2c(C#N)c3ccccc3n2C)CC1	-19.6

SMILES	hERG current change (%, negative = inhibition) at 1uM [%]
CC(C)n1cc(C(=O)N2CCCC(N3CCN(c4ccc(F)cc4)CC3)C2)cn1 (stereo not drawn)	11.5
Cc1ccc2c(c1)c1c3n2CCN(CC(O)CNC(C)C)C3CCC1.Cl.O (stereo not drawn)	-1.61
CCOC(=O)C(O)C1CCc2c([nH]c3ccc(C)cc23)C1=O (stereo not drawn)	10.9
CCOCCn1c(N2CCN(c3ccc(OC)cc3)CC2)nc2c1c(=O)n(C)c(=O)n2C	-6.95
CC(CN1CCCCC1)OC(=O)COc1ccc(Cl)cc1.Cl (stereo not drawn)	12.5
COC(CNC(=O)c1ccc2c(c1)ncn2-c1cc(C)cc(C)c1)OC	1
Cc1cccc(C)c1NC(=O)CN(C)CC(=O)c1c(N)n(Cc2ccccc2)c(=O)n(C)c1=O	5
O=C(Nc1nccs1)c1ccc(S(=O)(=O)N2CCCCC2)cc1	12.7
Cc1cc(C)cc(NC(=S)Nc2ccc(Cl)c(Cl)c2)c1	8.43
CNC(=O)CC(CC(=O)c1ccccc1)c1ccccc1 (stereo not drawn)	14.9
C#CCOCCOCCOCCNc1nc(N2CCN(C(=O)[C@H](CCC(=O)O)n3cc(C(N)CO)nn3)CC2)nc(N2CCN(C(=O)[C@H](Cc3ccc(O)cc3)n3cc(C(N)[C@H](C)CC)nn3)CC2)n1.Cl (stereo partly drawn)	5.62
CCCC[n+]1ccn(-c2nc3c([N+](=O)[O-])cccc3n2C)c1.[I-]	12.2
O=C(NCc1cccs1)c1nc2c(nnn2Cc2ccc(F)cc2)c(=O)[nH]1	-7.69
Cc1ccc(C(=O)N/C(=C/c2cccs2)C(=O)N2CCCCCC2)cc1	-13.9
COc1ccc2[nH]c(=O)c(CN(C(=O)NC3CCCCC3)C3CCCCC3)cc2c1	-1.05
CCc1c(O)c(/C(C)=N\O)c(=O)n(-c2ccccc2)c1-c1ccccc1	8.81
Cc1cccc(C(=O)Nc2ccc(C(=O)N/N=C/c3ccc(C)o3)cc2)c1	10.9
Cc1ccc(C(=O)OCC(=O)NC2CC2)cc1S(=O)(=O)N1CCOCC1	16.7
CCn1c(CNC(=O)c2ccco2)nnc1SCC(=O)c1ccccc1	9.19
O=C(CSc1ncnc2c1oc1ccccc12)Nc1cccc(C(F)(F)F)c1	13.5
CCCOc1ccc(-c2nnn(CC(=O)c3ccc4c(c3)OCCO4)n2)cc1	12
COCC1CCN(Cc2cn[nH]c2-c2ccc(OC)c(F)c2)C1 (stereo not drawn)	3.17
COc1ccc(C(=O)C[n+]2ccc3c(c2)nnn3-c2ccccc2)cc1.[Br-]	-12
Cc1ccc(-c2noc(C3CCCN(C(=O)c4cccc(Cl)c4)C3)n2)o1 (stereo not drawn)	-7.5
C=CCNC(=O)c1ccc(C)cc1Cl	-6.83
COc1ccc(CN(C(=O)CNC(=O)c2ccco2)C(C(=O)NCC2CCCO2)c2ccc(OC)c(OC)c2)cc1 (stereo not drawn)	9.92
O=C(O)C1C2CCC(O2)C1C(=O)Nc1ccc(F)c(Cl)c1 (stereo not drawn)	22.8
